Test results published in the supplement of paper PMC6657886.

Key:
Assay in all cases: Agar dilution on enriched GC agar; resistance determinants by microarray.
[1] = compound: CC1(C)S[C@@H]2[C@H](NC(=O)Cc3ccccc3)C(=O)N2[C@H]1C(=O)O [benzylpenicillin]
[2] = compound: CC[C@H]1OC(=O)[C@H](C)[C@@H](O[C@H]2C[C@@](C)(OC)[C@@H](O)[C@H](C)O2)[C@H](C)[C@@H](O[C@@H]2O[C@H](C)C[C@H](N(C)C)[C@H]2O)[C@](C)(O)C[C@@H](C)CN(C)[C@H](C)[C@@H](O)[C@]1(C)O [azithromycin]
[3] = compound: CN(C)[C@@H]1C(O)=C(C(N)=O)C(=O)[C@@]2(O)C(O)=C3C(=O)c4c(O)cccc4[C@@](C)(O)[C@H]3C[C@@H]12 [tetracycline]
[4] = compound: CN[C@@H]1[C@H](O)[C@H](NC)[C@H]2O[C@@]3(O)C(=O)C[C@@H](C)O[C@H]3O[C@@H]2[C@H]1O [spectinomycin]
[5] = compound: CO/N=C(\C(=O)N[C@@H]1C(=O)N2C(C(=O)O)=C(CSc3nc(=O)c(O)nn3C)CS[C@H]12)c1csc(N)n1 [ceftriaxone]

Neisseria gonorrhoeae isolate 379 (blaTEM plasmid: no, gyrA: Thr91, Gly95, mtrR promoter: wild type, parC: wild type, penA: ins345Asp, ponA: wild type, porB: wild type, rpsJ: Met57, tetM plasmid: no)
MIC [1]: 0.25 µg/mL | MIC [2]: 0.12 µg/mL | MIC [3]: 1 µg/mL | MIC [4]: 16 µg/mL | MIC [5]: ≤ 0.002 µg/mL

Neisseria gonorrhoeae isolate 414 (blaTEM plasmid: no, gyrA: Thr91, Gly95, mtrR promoter: wild type, parC: wild type, penA: wild type, ponA: wild type, porB: wild type, rpsJ: wild type, tetM plasmid: yes)
MIC [1]: 0.06 µg/mL | MIC [2]: 0.06 µg/mL | MIC [3]: 8 µg/mL | MIC [4]: 16 µg/mL | MIC [5]: ≤ 0.002 µg/mL

Neisseria gonorrhoeae isolate 190 (blaTEM plasmid: no, gyrA: Phe91, Asn95, mtrR promoter: -35delA, parC: Arg87, Glu91, penA: ins345Asp, ponA: wild type, porB: Asp120, Gly121, rpsJ: Met57, tetM plasmid: yes)
MIC [1]: 0.5 µg/mL | MIC [2]: 0.12 µg/mL | MIC [3]: 32 µg/mL | MIC [4]: 16 µg/mL | MIC [5]: 0.008 µg/mL

Neisseria gonorrhoeae isolate 187 (blaTEM plasmid: no, gyrA: Phe91, Asn95, mtrR promoter: wild type, parC: Arg87, Glu91, penA: ins345Asp, ponA: Pro421, porB: Asp120, Ala121, rpsJ: Met57, tetM plasmid: no)
MIC [1]: 0.12 µg/mL | MIC [2]: 0.12 µg/mL | MIC [3]: 0.5 µg/mL | MIC [4]: 16 µg/mL | MIC [5]: ≤ 0.002 µg/mL

Neisseria gonorrhoeae isolate 273 (blaTEM plasmid: no, gyrA: wild type, mtrR promoter: wild type, parC: wild type, penA: ins345Asp, ponA: wild type, porB: Asp120, Ala121, rpsJ: Met57, tetM plasmid: no)
MIC [1]: 1 µg/mL | MIC [2]: 0.015 µg/mL | MIC [3]: 2 µg/mL | MIC [4]: 32 µg/mL | MIC [5]: 0.008 µg/mL

Neisseria gonorrhoeae isolate 200 (blaTEM plasmid: no, gyrA: wild type, mtrR promoter: wild type, parC: wild type, penA: ins345Asp, ponA: Pro421, porB: wild type, rpsJ: Met57, tetM plasmid: no)
MIC [1]: 0.06 µg/mL | MIC [2]: 0.12 µg/mL | MIC [3]: 0.5 µg/mL | MIC [4]: 8 µg/mL | MIC [5]: ≤ 0.002 µg/mL

Neisseria gonorrhoeae isolate 303 (blaTEM plasmid: no, gyrA: Phe91, Gly95, mtrR promoter: -35delA, parC: Arg87, Glu91, penA: ins345Asp, ponA: Pro421, porB: wild type, rpsJ: Met57, tetM plasmid: no)
MIC [1]: 1 µg/mL | MIC [2]: 0.015 µg/mL | MIC [3]: 1 µg/mL | MIC [4]: 32 µg/mL | MIC [5]: 0.008 µg/mL

Neisseria gonorrhoeae isolate 411 (blaTEM plasmid: no, gyrA: wild type, mtrR promoter: wild type, parC: wild type, penA: ins345Asp, ponA: wild type, porB: wild type, rpsJ: wild type, tetM plasmid: no)
MIC [1]: 0.06 µg/mL | MIC [2]: 0.06 µg/mL | MIC [3]: 0.25 µg/mL | MIC [4]: 16 µg/mL | MIC [5]: 0.008 µg/mL

Neisseria gonorrhoeae isolate 352 (blaTEM plasmid: no, gyrA: Phe91, Asn95, mtrR promoter: -35delA, parC: wild type, penA: wild type, ponA: Pro421, porB: Asn120, Asp121, rpsJ: Met57, tetM plasmid: no)
MIC [1]: 1 µg/mL | MIC [2]: 0.25 µg/mL | MIC [3]: 1 µg/mL | MIC [4]: 16 µg/mL | MIC [5]: 0.015 µg/mL

Neisseria gonorrhoeae isolate 254 (blaTEM plasmid: no, gyrA: Phe91, Gly95, mtrR promoter: wild type, parC: Arg87, Glu91, penA: ins345Asp, ponA: Pro421, porB: Asp120, Ala121, rpsJ: Met57, tetM plasmid: no)
MIC [1]: 0.25 µg/mL | MIC [2]: 0.008 µg/mL | MIC [3]: 0.5 µg/mL | MIC [4]: 32 µg/mL | MIC [5]: 0.004 µg/mL

Neisseria gonorrhoeae isolate 317 (blaTEM plasmid: no, gyrA: Phe91, Asn 95, mtrR promoter: -35delA, parC: Arg87, Glu91, penA: ins345Asp, ponA: Pro421, porB: wild type, rpsJ: Met57, tetM plasmid: no)
MIC [1]: 0.5 µg/mL | MIC [2]: 0.06 µg/mL | MIC [3]: 0.5 µg/mL | MIC [4]: 32 µg/mL | MIC [5]: ≤ 0.002 µg/mL

Neisseria gonorrhoeae isolate 140 (blaTEM plasmid: no, gyrA: wild type, mtrR promoter: wild type, parC: wild type, penA: wild type, ponA: wild type, porB: wild type, rpsJ: wild type, tetM plasmid: no)
MIC [1]: ≤ 0.015 µg/mL | MIC [2]: 0.12 µg/mL | MIC [3]: 0.25 µg/mL | MIC [4]: 16 µg/mL | MIC [5]: ≤ 0.002 µg/mL

Neisseria gonorrhoeae isolate 381 (blaTEM plasmid: no, gyrA: Phe91, Asn 95, mtrR promoter: wild type, parC: Arg 87, Glu91, penA: ins345Asp, ponA: Pro421, porB: Asp120, Ala121, rpsJ: Met57, tetM plasmid: no)
MIC [1]: 0.25 µg/mL | MIC [2]: 0.06 µg/mL | MIC [3]: 0.5 µg/mL | MIC [4]: 32 µg/mL | MIC [5]: ≤ 0.002 µg/mL

Neisseria gonorrhoeae isolate 86 (blaTEM plasmid: no, gyrA: wild type, mtrR promoter: wild type, parC: wild type, penA: wild type, ponA: wild type, porB: wild type, rpsJ: wild type, tetM plasmid: no)
MIC [1]: ≤ 0.015 µg/mL | MIC [2]: 0.12 µg/mL | MIC [3]: 0.25 µg/mL | MIC [4]: 32 µg/mL | MIC [5]: ≤ 0.002 µg/mL

Neisseria gonorrhoeae isolate 180 (blaTEM plasmid: no, gyrA: Phe91, Gly95, mtrR promoter: wild type, parC: Arg87, Glu91, penA: ins345Asp, ponA: Pro421, porB: Asp120, Ala121, rpsJ: Met57, tetM plasmid: no)
MIC [1]: 0.25 µg/mL | MIC [2]: 0.015 µg/mL | MIC [3]: 0.5 µg/mL | MIC [4]: 32 µg/mL | MIC [5]: ≤ 0.002 µg/mL

Neisseria gonorrhoeae isolate 375 (blaTEM plasmid: no, gyrA: wild type, mtrR promoter: wild type, parC: wild type, penA: wild type, ponA: wild type, porB: wild type, rpsJ: wild type, tetM plasmid: no)
MIC [1]: ≤ 0.015 µg/mL | MIC [2]: 0.12 µg/mL | MIC [3]: 0.5 µg/mL | MIC [4]: 32 µg/mL | MIC [5]: ≤ 0.002 µg/mL

Neisseria gonorrhoeae isolate 10 (blaTEM plasmid: no, gyrA: wild type, mtrR promoter: wild type, parC: wild type, penA: ins345Asp, ponA: wild type, porB: wild type, rpsJ: wild type, tetM plasmid: no)
MIC [1]: ≤ 0.015 µg/mL | MIC [2]: 0.06 µg/mL | MIC [3]: 0.06 µg/mL | MIC [4]: 8 µg/mL | MIC [5]: ≤ 0.002 µg/mL

Neisseria gonorrhoeae isolate 378 (blaTEM plasmid: no, gyrA: Phe91, Asn95, mtrR promoter: -35delA, parC: Arg87, Glu91, penA: ins345Asp, ponA: Pro421, porB: wild type, rpsJ: Met57, tetM plasmid: no)
MIC [1]: 0.5 µg/mL | MIC [2]: 0.25 µg/mL | MIC [3]: 1 µg/mL | MIC [4]: 32 µg/mL | MIC [5]: 0.015 µg/mL

Neisseria gonorrhoeae isolate 177 (blaTEM plasmid: no, gyrA: Phe91, Asn 95, mtrR promoter: -35delA, parC: wild type, penA: ins345Asp, ponA: Pro421, porB: Asn120, Asp121, rpsJ: Met57, tetM plasmid: no)
MIC [1]: 2 µg/mL | MIC [2]: 0.12 µg/mL | MIC [3]: 2 µg/mL | MIC [4]: 16 µg/mL | MIC [5]: 0.015 µg/mL

Neisseria gonorrhoeae isolate 194 (blaTEM plasmid: no, gyrA: Phe91, Asn 95, mtrR promoter: wild type, parC: wild type, penA: ins345Asp, ponA: Pro421, porB: Asp120, Gly121, rpsJ: Met57, tetM plasmid: yes)
MIC [1]: 1 µg/mL | MIC [2]: 0.06 µg/mL | MIC [3]: 16 µg/mL | MIC [4]: 8 µg/mL | MIC [5]: ≤ 0.002 µg/mL

Neisseria gonorrhoeae isolate 460 (blaTEM plasmid: no, gyrA: wild type, mtrR promoter: wild type, parC: wild type, penA: wild type, ponA: wild type, porB: wild type, rpsJ: wild type, tetM plasmid: no)
MIC [1]: 0.25 µg/mL | MIC [2]: 0.5 µg/mL | MIC [3]: 4 µg/mL | MIC [4]: 16 µg/mL | MIC [5]: 0.004 µg/mL

Neisseria gonorrhoeae isolate 329 (blaTEM plasmid: no, gyrA: wild type, mtrR promoter: wild type, parC: wild type, penA: wild type, ponA: wild type, porB: wild type, rpsJ: wild type, tetM plasmid: no)
MIC [1]: ≤ 0.015 µg/mL | MIC [2]: 0.12 µg/mL | MIC [3]: 0.25 µg/mL | MIC [4]: 8 µg/mL | MIC [5]: ≤ 0.002 µg/mL

Neisseria gonorrhoeae isolate 265 (blaTEM plasmid: no, gyrA: wild type, mtrR promoter: wild type, parC: wild type, penA: wild type, ponA: wild type, porB: wild type, rpsJ: wild type, tetM plasmid: no)
MIC [1]: ≤ 0.015 µg/mL | MIC [2]: 0.25 µg/mL | MIC [3]: 0.06 µg/mL | MIC [4]: 16 µg/mL | MIC [5]: ≤ 0.002 µg/mL

Neisseria gonorrhoeae isolate 318 (blaTEM plasmid: no, gyrA: Phe91, Asn95, mtrR promoter: -35delA, parC: Arg87, Glu91, penA: ins345Asp, ponA: Pro421, porB: Asn120, Asp121, rpsJ: Met57, tetM plasmid: no)
MIC [1]: 2 µg/mL | MIC [2]: 0.25 µg/mL | MIC [3]: 2 µg/mL | MIC [4]: 32 µg/mL | MIC [5]: 0.015 µg/mL

Neisseria gonorrhoeae isolate 260 (blaTEM plasmid: no, gyrA: wild type, mtrR promoter: wild type, parC: wild type, penA: wild type, ponA: wild type, porB: wild type, rpsJ: wild type, tetM plasmid: no)
MIC [1]: ≤ 0.015 µg/mL | MIC [2]: 0.12 µg/mL | MIC [3]: 0.25 µg/mL | MIC [4]: 32 µg/mL | MIC [5]: ≤ 0.002 µg/mL

MIC of clinical N. gonorrhoeae isolates (2015-2017) by agar dilution on GC agar with 1% IsoVitaleX (ranges not stated); higher = less susceptible. No active / inactive call per row; the paper counts benzylpenicillin above 1 and ceftriaxone above 0.125 mg/L as resistant (EUCAST). The method is stated for benzylpenicillin and ceftriaxone and assumed for the other drugs. '<=' is inferred from pile-ups at the end values. Isolates are numbered anew.
